In PubChem BioAssay:
Inconclusive means that the source gave no clear call. Such entries were picked first, then a sample of the others. Calls of active or inactive are those of the source.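 How the source made its calls, unless noted: active means thallium flux slope more than 3 SD above or below the plate's solvent-only control mean, mostly below; inconclusive means the two repeat wells disagreed; inactive means no significant shift from solvent-only controls.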

Assays:
[1] = FluoZin2 fluorescence counter-screen of MLSMR hits on KCC2-expressing cells (AID 1714;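 active means thallium entry rate above the same plate's blocked-transporter control wells by more than 3 SD; inconclusive means the two repeat wells disagree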;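 further: raw slope of fluorescence over initial fluorescence between 10 and 20 s after thallium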); details: HEK293-KCC2 + bumetanide/ouabain, at 10 µM, hits give high values
Summary of the method: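 Assay system: HEK cells expressing the K-Cl cotransporter KCC2; buffer or medium: HBSS-HEPES plus ouabain 0.2 mM, bumetanide 2 mM; reagent: thallium stimulus; compound dosing: 10 µM single dose; timing: 48 min dye loading; signal: FluoZin2-AM (0.5 µM) fluorescence, 480 nm ex/540 nm em, 1 Hz kinetic imaging; replication: duplicates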

[2] = molecular target: Solute carrier family 12 member 5 (Homo sapiens) (UniProt Q9H2X9); experiment: retest of KCC2 transport modulation, ouabain-free – cell-based, HEK293 KCC2, thallium flux, FluoZin2, secondary assay 2, confirmation (AID 1715); details: HEK293-KCC2, thallium flux FluoZin2 fluorescence; at 10 µM; actives lie on both sides; F/F0 rise rate, 10–20 s post-thallium;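 further: raw slope with 0.1% DMSO as baseline and bumetanide as block control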
Chain of UniProt Q9H2X9 (Q9H2X9 whole entry, looked up): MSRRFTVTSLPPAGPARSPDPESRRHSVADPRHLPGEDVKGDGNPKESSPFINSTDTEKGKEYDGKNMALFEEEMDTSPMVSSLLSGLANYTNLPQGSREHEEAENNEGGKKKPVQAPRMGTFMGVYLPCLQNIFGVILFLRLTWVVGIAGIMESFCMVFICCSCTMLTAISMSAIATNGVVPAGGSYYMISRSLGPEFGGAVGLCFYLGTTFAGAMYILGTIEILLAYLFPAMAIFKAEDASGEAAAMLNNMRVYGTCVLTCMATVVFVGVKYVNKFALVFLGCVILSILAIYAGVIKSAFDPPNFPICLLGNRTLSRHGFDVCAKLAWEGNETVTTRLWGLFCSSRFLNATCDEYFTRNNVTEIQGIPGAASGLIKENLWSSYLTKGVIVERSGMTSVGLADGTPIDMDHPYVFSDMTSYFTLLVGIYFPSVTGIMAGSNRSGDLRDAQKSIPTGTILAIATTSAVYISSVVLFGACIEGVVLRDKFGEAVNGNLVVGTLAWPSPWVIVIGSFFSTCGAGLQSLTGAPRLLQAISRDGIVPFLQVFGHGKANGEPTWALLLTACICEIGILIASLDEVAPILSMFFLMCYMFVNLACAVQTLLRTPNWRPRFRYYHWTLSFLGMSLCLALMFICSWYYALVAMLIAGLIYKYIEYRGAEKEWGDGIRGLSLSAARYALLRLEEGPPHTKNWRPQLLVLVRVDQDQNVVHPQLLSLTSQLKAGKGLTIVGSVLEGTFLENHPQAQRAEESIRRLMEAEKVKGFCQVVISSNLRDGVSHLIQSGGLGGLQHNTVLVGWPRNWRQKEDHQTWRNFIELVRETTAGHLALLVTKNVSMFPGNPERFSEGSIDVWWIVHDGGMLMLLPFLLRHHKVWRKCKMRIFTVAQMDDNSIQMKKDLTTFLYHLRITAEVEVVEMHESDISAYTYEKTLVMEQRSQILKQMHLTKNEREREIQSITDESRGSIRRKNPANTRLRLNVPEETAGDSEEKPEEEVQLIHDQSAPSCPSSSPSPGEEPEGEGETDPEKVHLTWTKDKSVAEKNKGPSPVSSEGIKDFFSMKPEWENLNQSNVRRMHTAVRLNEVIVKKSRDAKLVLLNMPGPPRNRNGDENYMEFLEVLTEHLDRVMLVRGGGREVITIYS

[3] = compound effects on native HEK Tl+ uptake – HEK cells, counterscreen 1, counter-screen for KCC2 modulator project, confirmation (AID 1716;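 active means thallium flux rate significantly above the same plate's solvent-only control wells, beyond their mean plus 3 SD; inconclusive means the two replicate wells gave conflicting results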); details: HEK293 parental cells, thallium flux FluoZin2, ouabain; at 10 µM; baseline-ratio fluorescence slope, 10–20 s after thallium
[4] = native HEK Tl+ uptake effects, second counter-screen – HEK cells, counterscreen 2, counter-screen for KCC2 modulator project, confirmation (AID 1718;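 active means thallium flux slope above the same plate's solvent-control mean plus 3 SD in both duplicate wells; inconclusive means duplicate wells that disagreed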;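 further: run without ouabain in cells lacking the KCC2 cotransporter; slope of fluorescence scaled to its starting value between 10 and 20 s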); details: HEK293 parental, thallium flux FluoZin-2 fluorescence slope; at 10 µM
Summary of the method: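 Test system: parental HEK cells / Reagent: thallium sulfate stimulus, 12 mM in buffer, pH 7.3 / Compound: single 10 µM final compound dose, 0.1% DMSO / Timing: overnight cell culture at 37 °C, 48 min dye loading, compound before thallium / Detection: FluoZin-2 fluorescence kinetics / Read-out: rate of F/F0 rise, 10–20 s after thallium addition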

[5] = molecular target: Solute carrier family 12 member 5 (Homo sapiens) (UniProt Q9H2X9); experiment: modulation of KCC2 thallium flux in HEK cells – cell-based, ouabain, retest, confirmation (AID 1717;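 active means thallium flux slope beyond 3 SD from same-plate DMSO control mean in most replicates, usually higher, sometimes lower; inconclusive means repeat tests gave conflicting results; inactive means no significant difference from controls in most replicates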;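 further: slope of initial-normalized fluorescence between seconds 10 and 20 after thallium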); details: HEK293-KCC2, thallium flux FluoZin2 fluorescence, at 10 µM, bidirectional: low = inhibitor, high = activator

SMILES | normalized thallium flux [1] | normalized thallium flux [2] | thallium flux rate (normalised fluorescence) [3] | thallium flux slope [4] | raw Tl+ flux slope (below DMSO = inhibition, above = activation) [5]
CCOC(=O)c1cc2c(ccn2-c2ccc(F)cc2)n1CC(=O)N(CC)CC | inactive: 0.00364 | active: 0.0228 | inconclusive: 0.00623 | inactive: 0.009 | 
CC1=CC(C)(C)n2c(O)c(N=NC(N)=S)c3c(C)ccc1c32 | active: 0.0118 | inactive: 0.0354 | active: 0.0164 | inconclusive: 0.0124 | inactive: 0.0233
COc1ccc(/C(O)=C2/C(=O)C(=O)N(CCN(C)C)C2c2ccccn2)cc1OC (configuration not stated) | inactive: 0.00737 | inactive: 0.0292 | inconclusive: 0.00796 | inconclusive: 0.0109 | 
O=C(CSc1nnc(C2CC2)n1Cc1ccccc1)c1cc2ccccc2o1 | inconclusive: 0.0078 | active: 0.0239 | inactive: 0.0069 | inactive: 0.00938 | inconclusive: 0.0171
CCCn1c(=O)c2ccccc2n2c(SCCOc3ccccc3)nnc12 | active: 0.00277 | inconclusive: 0.0261 | active: 0.0047 | active: 0.00772 | inconclusive: 0.0154
COc1ccc(N(CC(=O)Nc2ccc(C)c(C)c2)S(=O)(=O)c2c(C)n[nH]c2C)cc1 | inconclusive: 0.00558 | active: 0.0256 |  |  | inconclusive: 0.0168
S=C(NCCc1ccccc1)NC1CCCCCC1 | inconclusive: 0.00428 | inactive: 0.0291 | inactive: 0.00645 |  | inconclusive: 0.0154
COC(=O)c1ccc(Nc2c([N+](=O)[O-])c(=O)oc3ccccc23)cc1 | inconclusive: 0.00893 | inactive: 0.0294 | inconclusive: 0.00813 | inconclusive: 0.0106 | 
COCC(=O)Nc1cc(OC)ccc1OC | inconclusive: 0.00754 | inactive: 0.0347 | inconclusive: 0.00875 | inconclusive: 0.0115 | inactive: 0.0228
Cc1ccc2nc(N/C(=N/S(=O)(=O)c3ccc(F)cc3)c3ccccc3)sc2c1 | inactive: 0.00666 | inactive: 0.031 | inconclusive: 0.00834 | inconclusive: 0.0106 | inactive: 0.0195
Cc1ccc(SCCNC(=S)Nc2cc(C)ccc2C)cc1 | inactive: 0.00497 | inactive: 0.0291 | inconclusive: 0.0054 | inactive: 0.00898 | inconclusive: 0.0176
O=C(OCC(=O)N1CCN(C(=O)c2ccco2)CC1)c1sc2ccccc2c1Cl | inconclusive: 0.00771 | inconclusive: 0.0282 |  |  | inactive: 0.0184
O=C(C1CCN(c2nnc(-n3cccc3)s2)CC1)N1CCc2ccccc2C1 | inactive: 0.00506 | active: 0.0245 | inactive: 0.00773 | inactive: 0.0107 | 
Cc1ccc(-c2noc(CN3CCN(Cc4ccccc4)CC3)n2)cc1 | inconclusive: 0.00563 | inconclusive: 0.0261 |  |  | inactive: 0.0139
CCOC(=O)c1cc2c(ccn2C)n1CC(=O)N1CCC(Cc2ccccc2)CC1 | inactive: 0.00571 | inconclusive: 0.029 |  |  | active: 0.0157
O=C(CN(CCc1ccccc1)C(=O)Cn1nnc(-c2cccs2)n1)NCc1ccco1 | inactive: 0.00504 | active: 0.0238 | inactive: 0.00694 | inactive: 0.00978 | inconclusive: 0.0161
COC(=O)C1=C(C)N(CCCC(=O)O)C(=O)NC1c1cc2c(cc1[N+](=O)[O-])OCO2 (configuration not stated) | inconclusive: 0.0052 | inactive: 0.0277 | inactive: 0.00727 | inactive: 0.00983 | inactive: 0.0181
N#CC(C#N)=C(Nc1ccc(F)cc1)SCc1cccc(Br)c1 | inconclusive: 0.00754 | inconclusive: 0.0283 |  |  | active: 0.0146
O=C(CCCN1C(=O)c2cccc3cccc(c23)C1=O)N1CCc2ccccc2C1 | inconclusive: 0.003 | active: 0.0241 |  |  | active: 0.0121
O=c1[nH]c2cc3c(cc2cc1CN(Cc1nnnn1CC1CCCO1)C1CCCCC1)OCO3 (configuration not stated) | inconclusive: 0.00383 | active: 0.0252 | inactive: 0.00675 | inconclusive: 0.00953 | 
Cn1c(/N=C/c2ccc3c(c2)OCO3)nc2ccccc21 | inactive: 0.00442 | inconclusive: 0.0271 | inactive: 0.00732 | inactive: 0.0101 | active: 0.0171
